# Out of some 310,000 compounds screened, about 14,000 (4.5%) showed an effect of 50% or more. The effect is printed as a negative number. The list shows a part of the results.
# Biological target: human ether-à-go-go-related gene (hERG) potassium channel (human, UniProt Q12809)
# Experiment: primary screen, population patch clamp on CHO cells stably expressing hERG
# 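Further: peak tail current of the secondary pulse compared with the same well before compound.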
# Sequence of human ether-à-go-go-related gene (hERG) potassium channel (Q12809 whole entry, looked up): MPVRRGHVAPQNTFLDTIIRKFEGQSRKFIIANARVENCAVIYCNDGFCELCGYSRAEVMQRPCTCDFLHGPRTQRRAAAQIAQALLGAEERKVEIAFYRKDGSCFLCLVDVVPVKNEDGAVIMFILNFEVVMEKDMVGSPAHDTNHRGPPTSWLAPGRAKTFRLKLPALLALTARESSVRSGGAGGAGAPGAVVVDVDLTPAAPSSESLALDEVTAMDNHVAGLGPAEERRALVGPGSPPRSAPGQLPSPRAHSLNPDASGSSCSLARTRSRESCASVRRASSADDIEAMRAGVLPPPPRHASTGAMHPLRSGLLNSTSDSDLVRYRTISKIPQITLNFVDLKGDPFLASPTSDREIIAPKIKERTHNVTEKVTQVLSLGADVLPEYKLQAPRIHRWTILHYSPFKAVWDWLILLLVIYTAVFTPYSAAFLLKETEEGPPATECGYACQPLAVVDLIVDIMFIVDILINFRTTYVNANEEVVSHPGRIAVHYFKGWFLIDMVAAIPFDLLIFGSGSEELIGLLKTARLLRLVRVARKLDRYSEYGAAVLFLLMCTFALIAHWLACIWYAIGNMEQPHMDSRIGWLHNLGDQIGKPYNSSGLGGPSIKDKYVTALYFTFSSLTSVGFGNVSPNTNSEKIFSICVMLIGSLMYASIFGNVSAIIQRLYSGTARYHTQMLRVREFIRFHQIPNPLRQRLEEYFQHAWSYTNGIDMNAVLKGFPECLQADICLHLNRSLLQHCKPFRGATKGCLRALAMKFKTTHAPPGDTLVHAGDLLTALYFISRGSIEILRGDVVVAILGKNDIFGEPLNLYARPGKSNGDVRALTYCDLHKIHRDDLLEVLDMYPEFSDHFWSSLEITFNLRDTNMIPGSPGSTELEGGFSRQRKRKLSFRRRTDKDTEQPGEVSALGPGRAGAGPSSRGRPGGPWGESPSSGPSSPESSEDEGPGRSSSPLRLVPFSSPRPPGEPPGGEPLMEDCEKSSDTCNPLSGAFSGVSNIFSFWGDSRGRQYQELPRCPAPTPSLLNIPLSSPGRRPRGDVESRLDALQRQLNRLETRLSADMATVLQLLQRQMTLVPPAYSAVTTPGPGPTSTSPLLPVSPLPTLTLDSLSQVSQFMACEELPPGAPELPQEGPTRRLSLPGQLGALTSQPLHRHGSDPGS
row,Compound,"hERG current change (%, negative = inhibition) at 10uM [%]"
1,CN=C(NC1CCCCC1)c1ccc([N+](=O)[O-])cc1,1.68
2,Cc1c(OCC(=O)NCCCn2ccnc2)ccc2c3c(c(=O)oc12)CCC3,-26.7
3,COc1ccc2c(c1)-c1nc(/N=C/c3ccc(O)c(OC)c3)sc1CC2,-7.28
4,Cc1ccc(NC(=O)Cc2n[nH]c(=O)c3ccccc23)cc1S(=O)(=O)N1CCCCCC1,-51.5
5,CCOC(=O)c1c(C)nc(C)c(C(=O)OCC)c1-c1ccc(OC)cc1,-17.5
6,COc1ccc(N(CC(=O)NN=C2CCCCCCC2)S(=O)(=O)c2ccccc2)cc1,-4.46
7,Cc1snc(SCC(=O)N/N=C(\N)COc2cccc(C(F)(F)F)c2)c1C#N,-1.67
8,Cc1cc(N)ccc1NC(=O)CN1CCCC1,21.2
9,Cc1c(NC(=O)c2cnn3cccnc23)c(=O)n(-c2ccccc2)n1C,4.45
10,CCN1CCN(S(=O)(=O)c2cc(C(=O)O)ccc2Cl)CC1.Cl,-3.34
11,COCC(C)n1c(SCC(=O)NC(=O)Nc2ccc3c(c2)OCCO3)nc2ccccc2c1=O (stereo not shown),2.16
12,C[C@H](NC(=O)NCCc1ccccc1)C(=O)O,7.24
13,O=C(Cn1cnnn1)Nc1ccccc1Cc1ccccc1,-0.266
14,COc1ccc(C2=NOC(Cn3nc(C(=O)NCc4ccc(C)cc4)cc3-c3ccccc3)C2)cc1 (stereo not shown),2.68
15,O=C(Nc1ccc(Cl)cc1)N1CCSCC1,14
16,CSc1nc2c(ccc3ccccc32)o1,12.9
17,Cc1cc(C=C2C(=O)N(C)C(=O)N(C)C2=O)c(C)n1-c1ccccc1,17.5
18,CC(Sc1nnc(N)s1)C(=O)NCc1ccc2c(c1)OCO2 (stereo not shown),0.709
19,Cc1ccc(CNC(=O)CCS(=O)(=O)c2ccc3c(c2)CC(C)N3C(=O)C2CC2)cc1 (stereo not shown),2.43
20,CCCN1C(=O)C(O)(CC(=O)c2ccc3c(c2)OCCO3)c2ccccc21 (stereo not shown),7.24
21,COc1cccc(CNS(=O)(=O)c2csc(C(N)=O)c2)c1,21.3
22,Cc1ccc(C)c(N2C(=O)CS/C2=N\NC(=O)c2ccccc2Cl)c1,2.58
23,CC(NC(=O)c1csc2ccccc12)C1CCCO1 (stereo not shown),-0.0925
24,CCNC(=S)NNC(=O)c1ccccc1OC(F)F,-4.17
25,Cc1cccc2nc(CSc3nc4ccc([N+](=O)[O-])cc4[nH]3)c(Br)n12,-14
26,CCC1(C)N(O)C(C)(C)C(c2ccc(OC)cc2)=[N+]1[O-] (stereo not shown),11.6
27,CN(C(=O)c1ccc(NC(=O)Cc2cccc(NC(=O)C3CCCN(C(=O)CCc4ccccc4)C3)c2)cc1)C1CCCC1 (stereo not shown),5.46
28,CCOC(=O)[C@H]1[C@H]2COc3ccc(Cl)cc3[C@@H]2N2C(=O)CN(Cc3ccccc3)C(=O)[C@@]12C,-13.1

row,Compound,"hERG current change (%, negative = inhibition) at 10uM [%]"
1,CCCOc1ccc(C(=O)N/N=C/c2c[nH]c3ccc(Br)cc23)cc1,22.1
2,O=C(COC(=O)/C=C/c1cccc(C(F)(F)F)c1)NCCN1C(=O)CSC1=O,-28.1
3,COc1ccc(N=C2SCC(=O)N2Cc2ccccc2)cc1,-14.5
4,CC(=O)N(C(C)=O)S(=O)(=O)c1ccc(N=NN2CCOCC2)cc1,9.21
5,COC(=O)CSc1nnc(CNS(=O)(=O)c2ccc(C)cc2)n1C,1.97
6,CN1CCc2c(sc(/N=C/c3c[nH]c4ccccc34)c2C#N)C1,-1.93
7,Cc1cc(NC(=O)CSc2nc(-c3ccc(F)cc3)cs2)no1,15.6
8,Cc1ccc(-n2[nH]c(C)c(/C=N/NC(=O)c3cccc([N+](=O)[O-])c3)c2=O)cc1C,-6.6
9,O=c1[nH]c(=S)n(-c2ccc(Br)cc2)c2ncccc12,12.9
10,Cc1cc(C)c(C#N)c(SCS(=O)Cc2ccccc2)n1 (stereo not shown),14.8
11,COc1ccc(OCCNS(=O)(=O)c2ccccc2)cc1,-12.8
12,CC(C)c1ccc(NC(=O)c2cc(S(=O)(=O)NCC3COc4ccccc4O3)ccc2F)cc1 (stereo not shown),-1.21
13,CC1(C)c2ccccc2N2CC(=O)N[C@@]21/C=C/C=C/c1ccccc1,16.1
14,Cc1ccc(S(=O)(=O)N(C)CC(=O)Nc2ccc3c(c2)OCO3)cc1,-10.7
15,Cc1ccccc1-c1nc(CN(Cc2c(C)nn(C)c2C)C2CC2)c(C)o1,5.22
16,CCC(CC)c1nnc(NC(=O)[C@@H](NC(=O)c2cccc(C)c2)C(C)C)s1,4.7
17,Cc1cc(=O)oc2c3c(cc(OCC(=O)NCC(=O)N[C@H](C(=O)O)C(C)C)c12)OC(C)(C)CC3,18.4
18,CC(=O)Nc1cccc(NC(=O)c2ccc3c(c2)CCN3S(C)(=O)=O)c1,20.2
19,O=C(C1CCCO1)N1CCN(c2c3c(nc4cc(-c5ccc(F)cc5)nn24)CCC3)CC1 (stereo not shown),-10.1
20,CCCCCSc1nc2c(cnn2-c2ccc(F)cc2)c(=O)[nH]1,20
21,CNc1c(NS(=O)(=O)c2ccc(Cl)cc2)c(=O)oc2ccccc12,16
22,N#C/C(=C(/O)CCl)c1nc(-c2ccccc2)cs1,6.06
23,CCOc1cc(CN2CCCC(C(=O)c3cccc(C(F)(F)F)c3)C2)ccc1O (stereo not shown),-61.2
24,COc1cc(/C=N\NC(=O)C(C)(C)O)ccc1OC/C=C/c1ccccc1,8.78
25,CN(Cc1cccc(C(F)(F)F)c1)C(=O)C1CCC(=O)N(CC2CCCCC2)C1 (stereo not shown),-6.77
26,Cc1sc2nc(C3CC3)nc(SCC(=O)N3c4ccccc4CC3C)c2c1C (stereo not shown),-2.09
27,Cc1cccc(NC(=O)Nc2ccc(C)c(C)c2)n1,27.4

# — paper PMC4336329 (PLoS ONE, 2015)
